In patent US20100087406A1, “INDUCTION OF INNATE IMMUNITY BY VITAMIN D3 AND ITS ANALOGS” (CEDARS-SINAI MEDICAL CENTER, priority 2004, published 2010):

Experiments:
CAMP [1] = settings: purified monocytes, neutrophils, cell lines from lung and head and neck squamous cell carcinomas; cited from earlier work
CAMP [2] = test: Induction of CAMP mRNA expression in HL60 cells (Northern blot)
CAMP [3] = test: Induction of CAMP mRNA expression in U937 cells (QRT-PCR, RT-PCR, Northern blot); type: cell-based, human; settings: listed as Vitamin D3
CAMP [4] = test: Induction of CAMP mRNA in bone marrow cells of an AML patient (QRT-PCR); settings: AML BM cells, 24 h, listed as Vitamin D3
CAMP [5] = test: Induction of CAMP mRNA in normal human BM-derived macrophages (QRT-PCR); settings: BM Mφ, increasing concentration, listed as Vitamin D3
defB2 = settings: purified monocytes, neutrophils, cell lines from lung and head and neck squamous cell carcinomas; cited from earlier work

C=C1/C(=C\C=C2/CCC[C@]3(C)[C@@H]([C@H](C)CCCC(C)(C)O)CC[C@@H]23)C[C@@H](O)C[C@@H]1O [1,25(OH)2D3, 1,25-dihydroxyvitamin D3]
induction of CAMP gene (CAMP [1]): observed induction of both CAMP and defB2 genes
induction of CAMP mRNA expression (CAMP [2]; HL60, 1×10^−6 M to 1×10^−9 M, 24 h, Northern blot): Moderate induction
time at which induction of the CAMP gene occurred (CAMP [2]; HL60, 1×10^−7 M, measured at 0, 1, 3, 5 days, listed as Vitamin D3): 1 days
induction of CAMP mRNA (CAMP [2]; HL-60, 1,25[OH]2D3 1×10^−7 M or TPA 5 ng/ml, 1, 3 or 5 days, Northern blot, listed as Vitamin D3): observed only in the presence of Vitamin D3
strength of CAMP induction, U937 compared with HL60 (CAMP [3]; 1×10^−7 M, Northern blot (FIG. 2A)): substantially higher in the U937 cell line
dose responsiveness of CAMP induction (CAMP [3]; U937, 1×10^−6 M to 1×10^−9 M, 24 h, Northern blot): strong, Vitamin D3 dose-dependent induction
induction of CAMP gene expression in the presence of CHX (CAMP [3]; U937, 1×10^−7 M, 20 μg/ml cyclohexamide, 6 and 9 hours, Northern blot): not impaired by the presence of CHX
induction of CAMP mRNA (CAMP [3]; U937, 1,25[OH]2D3 1×10^−7 M or TPA 5 ng/ml, 1, 3 or 5 days, Northern blot): observed only in the presence of Vitamin D3
dose dependence of CAMP mRNA induction (CAMP [4]): induced CAMP mRNA expression in a dose-dependent manner
induction of CAMP mRNA (CAMP/18S) (CAMP [5]): induced CAMP mRNA expression in a dose-dependent manner in every cell type tested
induction of defB2 gene (defB2): observed induction of both CAMP and defB2 genes
